Some of the results follow. The list includes weakly bound sequences.
Biological target: MaxL homodimer (UniProt P61244)
Assay: universal protein-binding microarray (PBM)
Conditions: PBS-based mixture, 10 nM His-tagged protein dimer, 2% milk, 200 ng/uL BSA, 50 ng/uL salmon testes DNA, 0.02% TX-100; detection with Alexa 488 anti-His …; high values mean tight binding; most listed sequences are background and not binding sites; double strand, one strand shown

Chain of UniProt P61244 (P61244 whole entry): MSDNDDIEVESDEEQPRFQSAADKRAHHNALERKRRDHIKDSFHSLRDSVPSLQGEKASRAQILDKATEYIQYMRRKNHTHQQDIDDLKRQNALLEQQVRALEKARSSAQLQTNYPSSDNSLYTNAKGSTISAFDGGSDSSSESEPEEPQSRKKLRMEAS

Row | Sequence | binding signal (normalized occupancy)
1 | CAGAGTCC | 0.0713
2 | TAGAGTGA | 0.0703
3 | CATACGTC | 0.0802
4 | AAGACAAC | 0.0774
5 | ACCTTAGG | 0.0754
6 | ATCCGGAG | 0.0746
7 | GGATAACC | 0.077
8 | ATCCTTCA | 0.089
9 | AGAAGTGG | 0.0765
10 | CTCGTTGC | 0.0774
11 | ACAGTCAT | 0.0791
12 | CCCCGCGG | 0.0745
13 | AATCAGCT | 0.073
14 | ACTATCCT | 0.0757
15 | GAATGAGC | 0.0771
16 | CTCGCGAG | 0.0703
17 | CTTCATCA | 0.0795
18 | AAGTCGGA | 0.0653
19 | ACTCGCTA | 0.07
20 | AAGAGTAG | 0.0774
21 | GCGCCACC | 0.0741
22 | ATTGCAGA | 0.0749
23 | GATACCCC | 0.0835
24 | ATCTAGGC | 0.0776
25 | GTAATTAC | 0.0776

Row | Sequence | binding signal (normalized occupancy)
26 | ATGCGGGC | 0.0827
27 | GCGCTCTA | 0.0696
28 | CATGCATA | 0.0989
29 | CCATCCCG | 0.0832
30 | CATGCAAG | 0.0837
31 | AGACGCAA | 0.0707
32 | CCTTTTAA | 0.0683
33 | AGGTCGTC | 0.0672
34 | AAGTCTGG | 0.0729
35 | CTTCTCAA | 0.076
36 | GAAAGCAA | 0.0708
37 | GCGTCTTA | 0.071
38 | TAAATTCA | 0.0775
39 | GATGATGA | 0.082
40 | GACGTCCA | 0.074
41 | GCGTCCGA | 0.072
42 | AATTGGCA | 0.0753
43 | CGATATCA | 0.0798
44 | AGCGGCCG | 0.0648
45 | AACGAACG | 0.0707
46 | CGATACTA | 0.0777
47 | ACATAACA | 0.0805
48 | AACGTTCC | 0.0772
49 | ACTCACTG | 0.0717
50 | GCCAACAC | 0.0748

Row | Sequence | binding signal (normalized occupancy)
51 | AGATCACT | 0.0756
52 | ACAATATC | 0.0837
53 | AGTATCTC | 0.0779
54 | ACTGTGAA | 0.0727
55 | CTAACTTA | 0.0677
56 | TATCAAAA | 0.0754
57 | CAATCGGA | 0.0756
58 | CTACACTA | 0.0744
59 | AAGGACCG | 0.0673
60 | TCCTATCA | 0.077
61 | CAGGCTTA | 0.0703
62 | AAGACCAC | 0.0774
63 | GAGATTTA | 0.0689
64 | TATCGCGA | 0.0693
65 | ACGACCAC | 0.0818
66 | GACGACTC | 0.0761
67 | ATCTGGCA | 0.0751
68 | GCACTGTA | 0.0737
69 | TCGCGGAA | 0.075
70 | AAACAGAA | 0.0757
71 | AATAGGAG | 0.0729
72 | AAGAAAGG | 0.0765
73 | TAGCGAGA | 0.0664
74 | AAGCCTAC | 0.0679
75 | CCTCATCG | 0.0777

Row | Sequence | binding signal (normalized occupancy)
76 | AGCATAAC | 0.0787
77 | CAGTAGGC | 0.0685
78 | AAGCTAAC | 0.0782
79 | CTTTCTCC | 0.0722
80 | ACTAAAAG | 0.0739
81 | GAAACCAA | 0.0737
82 | GAAGGGCC | 0.0721
83 | AACTAGTG | 0.0723
84 | GCCCGAGA | 0.0669
85 | ACCAGTCA | 0.0791
86 | TACGGATA | 0.0812
87 | AATGTTGT | 0.0807
88 | CTTACCAC | 0.0815
89 | AAGCCCAT | 0.0734
90 | CACACACA | 0.087
91 | GTCGATGA | 0.0779
92 | TCCAGGCA | 0.0758
93 | ATAGAAGG | 0.0772
94 | CGCGACAA | 0.0699
95 | TGGTCAAA | 0.0812
96 | GGGTCGCA | 0.0783
97 | GGTCGCGA | 0.0731
98 | ATGGAAAA | 0.0795
99 | CGCTTCCA | 0.0758
100 | ACTCATCA | 0.0768

Row | Sequence | binding signal (normalized occupancy)
101 | AGGCCGCG | 0.0705
102 | CATGAACA | 0.0847
103 | AGATCACC | 0.0721
104 | AAACGTCA | 0.0777
105 | AGGGGTCC | 0.0701
106 | GGGGTCTA | 0.0781
107 | ATGCAGTC | 0.0796
108 | ACTAGCCT | 0.0726
109 | AAGCTCGA | 0.0705
110 | ATCAGTAA | 0.0725
111 | CATGTAAA | 0.0785
112 | TCTAAGCA | 0.0764
113 | CCTATATA | 0.0837
114 | GCCGCCGA | 0.0703
115 | CCCTCGCA | 0.0775
116 | ATTACAGA | 0.0815
117 | CTAACGAG | 0.0739
118 | AAGTTGTG | 0.0757
119 | AAGTCGCC | 0.067
120 | ATACGTCC | 0.0753
121 | AACAATTC | 0.0737
122 | ACATCGGG | 0.0755
123 | CATGGGAC | 0.0894
124 | AGACTTAG | 0.0709
125 | AGGGTGGG | 0.0853

Row | Sequence | binding signal (normalized occupancy)
126 | CTTTAACA | 0.0708
127 | CGGTCAAA | 0.0736
128 | AATGATTC | 0.0753
129 | ATTGATGC | 0.0823
130 | ACAGGATC | 0.0717
131 | CCACACCA | 0.0899
132 | GGCGAGAC | 0.0734
133 | GACGTGCC | 0.0841
134 | ACCGAAAG | 0.0686
135 | GCTCCCGA | 0.0734
136 | ATCACAGG | 0.0758
137 | CACGAACA | 0.0802
138 | CGTTGAAG | 0.0758
139 | CTCCGCCC | 0.0678
140 | GGGGAACA | 0.081
141 | AACGCGAT | 0.0781
142 | CAAGCCTG | 0.0719
143 | AGTGCACT | 0.0755
144 | ATGGCATG | 0.0968
145 | CGTTAGCA | 0.0766
146 | AATAACCC | 0.0806
147 | CAACTGGC | 0.0716
148 | ATATTCCA | 0.081
149 | GACTTAGC | 0.0702
150 | AAGAAGCG | 0.0704

Row | Sequence | binding signal (normalized occupancy)
151 | CAACAACG | 0.0753
152 | AAAAAACG | 0.0732
153 | TAGTAACA | 0.0747
154 | TATGTAGA | 0.081
155 | CCAAAAAC | 0.072
156 | ATAGATTA | 0.0827
157 | CTAGTATC | 0.0723
158 | ACGCTGAA | 0.0752
159 | AGCACACA | 0.0906
160 | GCGCGTCA | 0.0723
161 | ATCAACAG | 0.0796
162 | AACTGCTT | 0.0665
163 | CGCGCGCC | 0.0783
164 | ACCCTAGG | 0.068
165 | ACGCGAGT | 0.0833
166 | CACTGCAA | 0.0711
167 | CCTTAGAC | 0.0715
168 | AATCCAAA | 0.0767
169 | ACTGTGGA | 0.0744
170 | AACATGCT | 0.0905
171 | GAATGGTC | 0.0803
172 | CCGAGTCC | 0.0711
